Test results taken from the supplement of paper PMC4967469.
Lines with a small IC50 respond at low doses; fits outside the tested doses are given as limits. AUC is the area under the same curve over the 256-fold range up to the top dose, as a fraction: 1 means no effect, lower means more sensitive. For some of these results: The top dose, if marked as inferred, is not printed in the source and was worked back from the curve model. For some of these results: Drugs with an entry number were screened twice under separate entries, and the two screens often disagree.

Assays:
Assay in all cases: Viability of human cancer cell lines after 72 h of drug (GDSC screen)
[1] = compound: NC(=O)C1CCCc2c1[nH]c1ccc(Cl)cc21 [EX-527]; conditions: top dose 20 µM
Description: (§1)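 Human cancer cell lines in 384-well plates, medium with 10% serum, drug for 72 h over a 256-fold dose range (nine 2-fold or five 4-fold steps up to the top dose). Adherent lines were fixed and stained with the nucleic acid dye Syto60, suspension lines read with resazurin; signal relative to control wells, capped at 0 and 100%. One two-parameter sigmoid per drug and line, fitted in a mixed model over all curves with the slope shared within a line.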

[2] = compound: N#CC(c1ccnc(NCCc2cccnc2)n1)c1nc2ccccc2s1 [AS601245]; conditions: top dose 8 µM; top dose inferred
Description: as §1

[3] = compound: Cn1cnc2c(F)c(Nc3ccc(Br)cc3Cl)c(C(=O)NOCCO)cc21 [AZD6244]; conditions: top dose 4 µM; screen: GDSC drug entry 1498; top dose inferred
Description: as §1

[4] = compound: Nc1ccc(C(=O)Nc2cccc(-c3nc(N4CCOCC4)c4oc5ncccc5c4n3)c2)cn1 [YM201636]; conditions: top dose 5.12 µM; top dose inferred
Description: as §1

Cell Line	AUC [1]	IC50 [1] [µM]	AUC [2]	IC50 [2] [µM]	AUC [3]	IC50 [3] [µM]	AUC [4]	IC50 [4] [µM]
22RV1 (prostate, adherent)	0.982	> 20	0.916	> 8	0.963	> 4	0.814	3.69
42-MG-BA (glioma, adherent)	0.985	> 20	0.893	> 8	0.93	> 4	0.934	> 5.12
201T (lung adenocarcinoma, adherent)	0.982	> 20	0.676	1.77	–	–	0.816	3.82
A375 (melanoma, adherent)	0.983	> 20	0.819	3.55	–	–	–	–
A704 (kidney, adherent)	–	–	0.873	7.28	0.952	> 4	0.917	> 5.12
A2058 (melanoma, adherent)	0.985	> 20	0.814	3.79	–	–	0.98	> 5.12
AGS (stomach, adherent)	0.988	> 20	0.895	7.97	–	–	0.917	> 5.12
AU565 (breast, adherent)	0.984	> 20	0.715	2.19	–	–	0.814	3.19
BICR31 (head and neck, adherent)	0.98	> 20	0.921	> 8	–	–	0.979	> 5.12
CAL-78 (chondrosarcoma, adherent)	0.986	> 20	0.914	> 8	–	–	0.954	> 5.12
CAPAN-1 (pancreas, adherent)	0.986	> 20	0.862	> 8	–	–	–	–
CHP-212 (neuroblastoma, adherent)	0.985	> 20	0.844	5.1	–	–	0.985	> 5.12
Calu-3 (lung adenocarcinoma, adherent)	0.982	> 20	0.933	> 8	0.955	> 4	–	–
Caov-3 (ovary, adherent)	0.98	> 20	0.956	> 8	–	–	0.945	> 5.12
Caov-4 (ovary, adherent)	–	–	0.888	> 8	0.876	> 4	0.904	> 5.12
FADU (head and neck, adherent)	0.984	> 20	0.956	> 8	–	–	0.975	> 5.12
H290 (mesothelioma, adherent)	–	–	0.865	6.09	0.838	2.37	–	–
H2804 (mesothelioma, adherent)	0.986	> 20	0.793	4.06	–	–	0.922	> 5.12
HCT-116 (large intestine, adherent)	0.983	> 20	0.901	> 8	0.705	0.913	–	–
HSC-4 (head and neck, adherent)	0.975	> 20	0.897	> 8	–	–	0.979	> 5.12

Cell Line	AUC [1]	IC50 [1] [µM]	AUC [2]	IC50 [2] [µM]	AUC [3]	IC50 [3] [µM]	AUC [4]	IC50 [4] [µM]
HuP-T4 (pancreas, adherent)	0.984	> 20	0.787	3.72	–	–	0.915	> 5.12
IGR-1 (melanoma, adherent)	0.966	> 20	0.814	3.69	–	–	0.861	3.51
JHU-029 (head and neck, adherent)	–	–	0.826	6.4	0.669	0.829	–	–
KMS-12-BM (myeloma, suspension)	0.981	> 20	0.932	> 8	–	–	0.913	> 5.12
KP-1N (pancreas, adherent)	–	–	0.763	3.02	0.851	3.29	–	–
KYSE-140 (oesophagus, adherent)	0.984	> 20	0.592	0.926	–	–	0.869	> 5.12
KYSE-410 (oesophagus, adherent)	0.985	> 20	0.879	> 8	–	–	0.954	> 5.12
KYSE-450 (oesophagus, adherent)	0.988	> 20	0.62	1.05	–	–	0.894	> 5.12
LN-229 (glioma, adherent)	0.983	> 20	0.904	> 8	0.862	3.4	–	–
MKN28 (stomach, adherent)	0.985	> 20	0.778	3.32	–	–	0.942	> 5.12
NCI-H460 (large cell lung carcinoma, adherent)	–	–	0.841	4.81	0.897	> 4	–	–
NCI-H1734 (lung adenocarcinoma, adherent)	0.983	> 20	0.824	5.4	–	–	0.948	> 5.12
NCI-H2023 (lung adenocarcinoma, adherent)	0.981	> 20	–	–	0.921	> 4	0.895	> 5.12
NCI-H2052 (mesothelioma, adherent)	0.983	> 20	0.813	5.91	–	–	0.95	> 5.12
OACM5-1 (oesophagus, semi-adherent)	0.985	> 20	–	–	0.976	> 4	0.46	0.245
OACp4C (oesophagus, adherent)	0.982	> 20	–	–	0.818	2.85	0.782	2.6
OC-314 (ovary, adherent)	0.991	> 20	–	–	0.919	> 4	0.946	> 5.12
OV-7 (ovary, adherent)	0.976	> 20	–	–	0.847	> 4	0.834	> 5.12
OV-17R (ovary, adherent)	0.972	> 20	–	–	0.898	> 4	0.857	> 5.12
